In PubChem BioAssay AID1240 (Sanford-Burnham Center for Chemical Genomics, 2008):
Out of some 50,000 compounds screened, about 800 (1.6%) showed an effect of 50% or more. The list shows a part of the results.

target: Bcl-2-like protein 10 (Homo sapiens) (UniProt Q9HD36); test: TR3 peptide-Bcl-B binding displacers, biochemical primary FP assay, phenotype converters (AID 1240); settings: GST-Bcl-B / FITC-TR3 peptide fluorescence polarization; stronger effect = higher value; compound at 3.75 mg/L;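 also: 0% = Bcl-B with tracer peptide and DMSO and 100% = tracer peptide lacking Bcl-B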
Chain of UniProt Q9HD36 (Q9HD36 whole entry, looked up): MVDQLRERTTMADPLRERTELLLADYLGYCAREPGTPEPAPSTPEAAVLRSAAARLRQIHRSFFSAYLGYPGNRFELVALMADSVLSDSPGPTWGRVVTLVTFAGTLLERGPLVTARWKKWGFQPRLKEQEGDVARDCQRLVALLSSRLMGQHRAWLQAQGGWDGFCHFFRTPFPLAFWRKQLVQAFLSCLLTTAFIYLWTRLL

Compound	displacement [%]
O=C1C(Cl)=C(Nc2ccccc2F)C(=O)N1c1ccc(Br)cc1	5.6
COc1ccc2nc(SCC(=O)Nc3cccc(C(F)(F)F)c3)[nH]c2c1	5.8
Cc1ccccc1OCC(=O)Nc1ccc(Cl)cc1Cl	1.9
COc1ccccc1NC(=O)CSc1cc(Cl)ccc1Cl	17.5
COc1cccc(N2C(=O)CC(N3CCC(C)CC3)C2=O)c1 (stereo unspecified)	6.3
CCCCOc1ccc2c(C(F)(F)F)cc(=O)oc2c1	-30.8
CCN1C(=O)/C(=C\c2cc(OC)ccc2OC)SC1=S	14.3
Cc1c(Br)c([N+](=O)[O-])nn1CC(=O)Nc1c(C)n(C)n(-c2ccccc2)c1=O	-4.9
CCOc1cccc(-c2cc(C(=O)N3CCC(C)CC3)c3ccccc3n2)c1	-2.5
CCOc1ccc(-n2nc3ccc(NC(=O)c4ccc(Cl)cc4)cc3n2)cc1	12.7
CCN1C(=O)/C(=C/c2cccc(OC)c2OC)C(=O)NC1=S	1.8
NC(=O)c1c(NC(=O)COc2ccccc2)sc2c1CCCCC2	14.4
CC(Oc1cccc(Cl)c1)C(=O)Nc1ccccc1C(=O)N1CCN(C)CC1 (stereo unspecified)	-4.9
COc1ccc(-c2nnc(/C=C/c3ccccc3)o2)cc1	12.4
COCCCNC(=O)CN(c1cccc(OC)c1)S(=O)(=O)c1ccccc1	15.1
CCc1ccccc1OCCCNC(C)(C)C	1.5
O=C1CC(N2CCN(C(c3ccccc3)c3ccccc3)CC2)C(=O)N1c1cccc(Br)c1 (stereo unspecified)	-7.4
O=S(=O)(Nc1cccc(-c2nc3cc(Cl)ccc3o2)c1)c1ccccc1	9.6
C=CCNC(=O)Nc1ccc2nc(-c3ccccc3)c(-c3ccccc3)nc2c1	-0.4
CCCCOc1ccc(C(=O)O/N=C2/C(=O)N(C)c3ccccc32)cc1	2.3
CCOC(=O)Oc1ccc2c(=O)c(Oc3ccc(C(C)(C)C)cc3)coc2c1	11.9
Nc1cccc(C(=O)Nc2ccccc2C(=O)O)c1	18.7
Cc1ccsc1/C=C(/C#N)c1nc(-c2ccc(-c3ccccc3)cc2)cs1	3.1

Compound	displacement [%]
O=C1C(=O)N(Cc2ccccc2)C(c2ccc([N+](=O)[O-])cc2)/C1=C(/O)c1ccccc1 (stereo unspecified)	13.8
FC(F)(F)c1ccc(/C=N/N2CCN(Cc3ccc(Cl)cc3)CC2)cc1	10.1
COc1ccc(OC)c(-n2cnc(-c3ccc([N+](=O)[O-])cc3)c2)c1NCc1ccccc1	0.1
CC1CCN(C(=O)c2cncc(Br)c2)CC1	14.9
Cc1sc(NC(=O)c2cccc(Br)c2)nc1-c1ccccc1	0.4
O=C(Nc1nnc(Cc2ccccc2)s1)c1ccco1	-0.6
CC(=O)Nc1cc2c(C)cc(=O)oc2cc1C	5
O=C(Nc1ccccc1)Nc1ccc(NC(=O)c2ccc(NC(=O)Nc3ccccc3)cc2)cc1	5.7
C/C(=N/N=C(c1ccccc1)c1ccccc1)c1cccs1	4.5
O=C(O)c1ccccc1C(=O)c1ccc2c3c(cccc13)CC2	6.5
Cc1cc(C)c(OCCCCN2CCCCC2)c(C)c1	-13.7
COC(=O)c1cc(Cl)c(NC(=O)c2ccc(F)cc2)cc1OC	-7.3
O=C(NN=C(C1CC1)C1CC1)c1cc2ccccc2cc1O	-16.1
N/N=C(\c1ccccc1)C12CN3CN(CN(C3)C1)C2	2.7
O=C1/C(=C/c2ccccc2OCc2ccc([N+](=O)[O-])cc2)SC(=S)N1Cc1ccccc1	12.7
O=C(O)c1cc(NC(=O)c2cccc(Br)c2)cc(C(=O)O)c1	-6.4
Cc1[nH]n(-c2ccccc2)c(=O)c1/C=N/N1C(=O)c2ccccc2C1=O	-31
O=C1CSC(=Nc2ccc(F)cc2)N1	17.5
O=C(Nc1ccc(Cl)c(-c2nc3c(ccc4ccccc43)o2)c1)c1ccccc1[N+](=O)[O-]	-28.3
Cc1ccc(NC(=S)NCCOc2cccc3ccccc23)c(C)c1	-15.4
COC(=O)c1cccc(N2C(=O)C=CC2=O)c1	1
O=C(c1cccc(F)c1F)N1CCN(c2cc(N3CCCC3)c(F)cc2[N+](=O)[O-])CC1	-9
CCC(=O)NC(C)c1ccc(Br)cc1 (stereo unspecified)	-0.4

Compound	displacement [%]
Cc1cccc(OCC(=O)O/N=C(\N)c2cccc(C)c2)c1	-9.8
NS(=O)(=O)c1ccc(NC(=O)/C=C/c2ccccc2Cl)cc1	7.1
Cc1ncc(C[n+]2csc(CCOC(=O)CC34CC5CC(CC(C)(C5)C3)C4)c2C)c(N)n1	8.9
COc1ccc(C2CC(C(F)(F)F)n3nc(C(=O)NCCCN4CCOCC4)c(Cl)c3N2)cc1OC (stereo unspecified)	2.2
O=C(O)CCCCCN1C(=O)C(=O)/C(=C(\O)c2ccc(Br)cc2)C1c1ccccc1 (stereo unspecified)	-20.6
O=C(Cc1ccc([N+](=O)[O-])cc1)Nc1ccccc1-c1ccccc1	5.2
O=C1/C(=C/c2cccc(O)c2)SC(=S)N1c1ccc(O)cc1	11.5
COc1ccc(C(=O)CSc2n[nH]c(-c3ccccc3)n2)cc1[N+](=O)[O-]	-17.2
Cc1cc(NC(=O)c2ccncc2)no1	0.4
COc1ccc(CNC(=O)CN(CCc2ccccc2)S(=O)(=O)c2ccc(OC)cc2)cc1	-23.7
CC(=O)Nc1ccccc1NC(=O)CCc1ccccc1	-4.1
CC(=O)N1c2ccccc2-c2c(ssc2=S)C1(C)C	9.4
NC(=O)/C(=C\c1ccc(Cl)cc1)NC(=O)c1ccco1	3.2
CC(=O)Nc1ccccc1NC(=O)COc1ccccc1C	11.1
S=C1NCCOCCOCCOCCNC(=S)N2CCOCCOCCN1CCOCC2	14.7
Brc1ccccc1CN1CCN(Cc2ccco2)CC1	2.1
Cc1ccc(OCC(=O)N(C)c2ccccc2)c(C)c1	3.3
Cc1ccc(OCC(=O)Nc2ccccc2O)c(C)c1	11.1
CCc1ccc(NC(=O)c2ccc(Cl)cc2Cl)cc1	0.3
NS(=O)(=O)c1ccc(NC(=S)Nc2ccc(F)cc2)cc1	-10.6
Clc1ccc(-c2ncc(-c3ccccc3)o2)cc1	12.2
Cc1cccc(C)c1NC(=O)C(C)Oc1cccc(Cl)c1 (stereo unspecified)	-11.8
Cc1ccc(-c2ccc(/C=N/N3C(=O)C4C(C3=O)C3C=CC4C34CC4)o2)c([N+](=O)[O-])c1 (stereo unspecified)	6.9

Compound	displacement [%]
CCOC(=O)C(O)(CCC(O)(C(=O)OCC)C(=O)OCC)C(=O)OCC	-0.4
CCN(CC)c1ccc(NC(=O)c2cc(I)ccc2Cl)cc1	7.9
Cc1ccc(-c2n[nH]c(=S)n2-c2ccccc2C)cc1	5.1
CCOC(=O)c1c(NC(=O)NN)sc2c1CCCC2	37
O=C(Nc1ccc2nn(-c3ccc(Cl)cc3)nc2c1)c1ccccn1	91
COC(=O)c1ccccc1NC(=O)c1cc(Br)ccc1OC	13
CCSc1nnc(NC(=O)c2ccc(Cl)cc2)s1	2.2
O=C(COc1ccc2ccccc2c1)Nc1ccc(S(=O)(=O)N2CCc3ccccc32)cc1	-6.7
O=C(Nc1ccc(-c2nc3ccccc3[nH]2)cc1)c1ccc(F)cc1	-5.7
O=C1/C(=C/C=C/c2ccccc2)SC(=S)N1c1ccc(F)cc1	-5.8
COC(=O)C1=C(C)N=c2s/c(=C\c3ccccc3F)c(=O)n2C1/C=C/c1ccccc1 (stereo unspecified)	15.3
COc1c(O)ccc(/C=N/NC(=O)C(O)c2ccccc2)c1[N+](=O)[O-] (stereo unspecified)	9.9
CC(=O)Oc1ccc(N2C(=O)C3ON(c4ccccc4)C(c4ccc(F)cc4)C3C2=O)cc1 (stereo unspecified)	4.4
Cc1cc(C)c(OCCCCN2CCC(C)CC2)c(C)c1	-1.3
COc1cccc(OC)c1C(=O)Nc1ccc(Cl)c(C(N)=O)c1	2.2
CNC(=O)c1c(-c2ccccc2)oc2ccc(O)cc12	10.3
CCOC(=O)c1ccc(NC(=O)CN(c2cccc(Br)c2)S(=O)(=O)c2ccccc2)cc1	44
COc1ccc(C(=O)N2CCN(Cc3ccccc3Cl)CC2)cc1	-10.4
O=C(O)CC(C(=O)O)c1c[nH]c2ccccc12 (stereo unspecified)	5.8
CCOC(=O)C1=C(C)N=c2s/c(=C\c3cccc([N+](=O)[O-])c3)c(=O)n2C1c1ccccc1F (stereo unspecified)	138
C=CCOCC(O)CS(=O)Cc1ccc(Cl)cc1 (stereo unspecified)	-8
COc1ccc2ccccc2c1-c1cc(C(=O)N/N=C/c2ccc(C)cc2)[nH]n1	-12.5
FC(F)(F)COc1nc(OCC(F)(F)F)nc(N2CCN(c3ccccc3)CC2)n1	11.9

Compound	displacement [%]
Cc1cc(/C=C2/NC(=O)NC2=O)c(C)n1-c1ccc(F)cc1	15
CCOC(=O)c1cnc2cc(-c3ccco3)[nH]n2c1=O	16.3
CCOC(=O)C1=C(C)N(c2ccc(OC)cc2)C(=O)/C1=C\c1ccc(O)c(OCC)c1	1.1
CCOc1ccc(C(=O)Nc2ccc3oc(-c4ccccc4Br)nc3c2)cc1	14
CC(=O)Nc1ccccc1NC(=O)c1cccc([N+](=O)[O-])c1	-11.5
O=C(Cc1ccccc1)Nc1nc(-c2ccccc2)cs1	2.1
CCOC(=O)C1=C(O)/C(=C/c2ccco2)SC1=Nc1cccc(Cl)c1	-0.6
O=C(Nc1cccc(NC(=O)c2cccc3ccccc23)c1)c1cccc(Cl)c1	2
COc1ccc(NC(=O)c2ccc(OC)c(OC)c2)cc1OC	-8.9
COc1cc(C=C2C(=O)NC(=S)NC2=O)cc(Cl)c1OCCOc1ccccc1C	-4.5
COc1ccccc1N1CCN(S(=O)(=O)c2ccc3ccccc3c2)CC1	0.5
COc1ccc(Cl)cc1C(=O)Nc1cc(C)cc(C)n1	4.7
O=C(Nc1cccc(NS(=O)(=O)c2ccccc2)c1)c1ccccc1Cl	-5.1
CC(=O)N1CC(c2ccccc2)CC1=O (stereo unspecified)	8.7
CCOC(=O)C1=C(O)/C(=C/c2ccc(O)c(OCC)c2)SC1=Nc1ccccc1	-47.6
O=C(CCc1ccccc1)Nc1cc(C(F)(F)F)ccc1Cl	11.6
CC(C)c1ccc(N2C(=O)NC(=O)/C(=C/c3cc4c(cc3Br)OCO4)C2=O)cc1	-11.1
CCCOc1ccc(/C=N/N2CCN(Cc3cccc4ccccc34)CC2)cc1	7.9
CN(C)/C=C1\N=C(c2cccc(F)c2)OC1=O	-4.4
